Laboratory results taken from US12016868B2, “Boronic acid derivatives and therapeutic uses thereof” (Qpex Biopharma, Inc., priority 2018, dated 2024).
The name of at least one read-out is uncertain.

Key:
[1] = test system: ECL1002; test: Aztreonam potentiation assay (MPC@4) and aztreonam MIC; type: cell-based; details: minimum BLI concentration inhibiting growth with aztreonam 4 μg/mL; strain ECL1002; tested up to 20 μg/mL
Experimental: (§1) The potency and spectrum of β-lactamase inhibitors (BLIs) was determined by assessing their aztreonam potentiation activity in a dose titration potentiation assay using strains of various bacteria that are resistant to aztreonam due to expression of various β-lactamases. Aztreonam is a monobactam antibiotic and is hydrolyzed by the majority of β-lactamases that belong to class A or C (but not class B or D). The potentiation effect was observed as the ability of BLI compounds to inhibit growth in the presence of sub-inhibitory concentration of aztreonam. […] Aztreonam was present in the test medium at 4 μg/mL. Compounds were tested at concentrations up to 20 μg/mL. In this assay, potency of compounds was reported as the minimum concentration of BLI required to inhibit growth of bacteria in the presence of 4 μg/mL of aztreonam (MPC@4). Table 1 summarizes the BLI potency of aztreonam potentiation (MPC@4) for various strains overexpressing class A (ESBL and KPC), and class C β-lactamases. Aztreonam MIC for each strain is also shown.

[2] = test system: KP1004 KPC-2; test: as above; type: cell-based; details: minimum BLI concentration inhibiting growth with aztreonam 4 μg/mL; strain KP1004 KPC-2; tested up to 20 μg/mL
Experimental: as §1

[3] = test system: KP1010 SHV-12; test: as above; type: cell-based; details: minimum BLI concentration inhibiting growth with aztreonam 4 μg/mL; strain KP1010 SHV-12; tested up to 20 μg/mL
Experimental: as §1

[4] = test system: ECL1002; test: Tigemonam potentiation assay (MPC@4) and tigemonam MIC; type: cell-based; details: minimum BLI concentration inhibiting growth with tigemonam 4 μg/mL; strain ECL1002; tested up to 20 μg/mL
Experimental: (§2) Selected β-lactamase inhibitors were also tested for their ability to potentiate the monobactam tigemonam. […] Tigemonam was present in the test medium at 4 μg/mL. Compounds were tested at concentrations up to 20 μg/mL. In this assay, potency of compounds was reported as the minimum concentration of BLI required to inhibit growth of bacteria in the presence of 4 μg/mL of tigemonam (MPC@4). Table 2 summarizes the BLI potency of tigemonam potentiation (MPC@4) for various strains overexpressing class A (ESBL) and class C β-lactamases.

[5] = test system: ec308 SHV-5; test: as above; type: cell-based; details: minimum BLI concentration inhibiting growth with tigemonam 4 μg/mL; strain ec308 SHV-5; tested up to 20 μg/mL
Experimental: as §2

[6] = test system: KP1004 KPC-2; test: Biapenem potentiation assay (MPC@1) and biapenem MIC; type: cell-based; details: minimum BLI concentration inhibiting growth with biapenem 1 μg/mL; strain KP1004 KPC-2; tested up to 20 μg/mL
Experimental: (§3) β-lactamase inhibitors were also tested for their ability to potentiate the carbapenem biapenem against strains producing class A (KPC), class D (OXA-48), and class B (metallo β-lactamases, NDM-1 and VIM-1) carbapenemases. The potentiation effect was observed as the ability of BLI compounds to inhibit growth in the presence of a sub-inhibitory concentration of biapenem. […] Biapenem was present in the test medium at 1 μg/mL. Compounds were tested at concentrations up to 20 μg/mL. In this assay, potency of compounds was reported as the minimum concentration of BLI required to inhibit growth of bacteria in the presence of 1 μg/mL of biapenem (MPC@1). Table 3 summarizes the BLI potency of biapenem potentiation (MPC@1) for four strains overexpressing class A (KPC), class D (OXA-48), and class B (NDM-1 and VIM-1) carbapenemases. Biapenem MIC for each strain is also shown.

[7] = test system: KP1081 NDM-1; test: as above; type: cell-based; details: minimum BLI concentration inhibiting growth with biapenem 1 μg/mL; strain KP1081 NDM-1; tested up to 20 μg/mL
Experimental: as §3

[8] = test system: KP1086 OXA-48; test: as above; type: cell-based; details: minimum BLI concentration inhibiting growth with biapenem 1 μg/mL; strain KP1086 OXA-48; tested up to 20 μg/mL
Experimental: as §3

[9] = test system: AB1053 OXA-72; test: Meropenem potentiation assay (MPC@8) and meropenem MIC; type: cell-based, Acinetobacter baumannii; details: minimum BLI concentration inhibiting growth with meropenem 8 μg/mL; A. baumannii strain AB1053 OXA-72; tested up to 20 μg/mL
Experimental: β-lactamase inhibitors were also tested for their ability to potentiate the carbapenem meropenem against strains of Acinetobacter baumannii producing class D (OXA-23 and OXA-72) carbapenemases. […] Meropenem was present in the test medium at 8 μg/mL. Compounds were tested at concentrations up to 20 μg/mL. In this assay, potency of compounds was reported as the minimum concentration of BLI required to inhibit growth of bacteria in the presence of 8 μg/mL of meropenem (MPC@8).

[10] = test system: KP1005 CTX-M-14; test: Aztreonam potentiation assay (MPC@4) and aztreonam MIC; type: cell-based; details: minimum BLI concentration inhibiting growth with aztreonam 4 μg/mL; strain KP1005 CTX-M-14; tested up to 20 μg/mL
Experimental: as §1

[11] = test system: KP1005 CTX-M-14; test: Tigemonam potentiation assay (MPC@4) and tigemonam MIC; type: cell-based; details: minimum BLI concentration inhibiting growth with tigemonam 4 μg/mL; strain KP1005 CTX-M-14; tested up to 20 μg/mL
Experimental: as §2

[12] = test system: KP1009 CTX-M-15; test: as above; type: cell-based; details: minimum BLI concentration inhibiting growth with tigemonam 4 μg/mL; strain KP1009 CTX-M-15; tested up to 20 μg/mL
Experimental: as §2

Compound	AZT MPC4 ECL1002 [1]	AZT MPC4 KPC-2 KP1004 [2]	AZT MPC4 SHV-12 KP1010 [3]	TIG MPC4 ECL1002 [4]	TIG MPC4 SHV-5 ec308 [5]	BPM MPC1 KP1004 KPC-2 [6]	BPM MPC1 KP1081 NDM-1 [7]	BPM MPC1 OXA-48 KP1086 [8]	MPM MPC8 AB1053 OXA-72 [9]	AZT MPC4 CTX-M-14 KP1005 [10]	TIG MPC4 CTX-M-14 KP1005 [11]	TIG MPC4 CTX-M-15 KP1009 [12]
COCC1CB(O)Oc2c1ccc(OC)c2C(=O)O (centres unmarked) [Compound 11, 2-Hydroxy-7-methoxy-4-(methoxymethyl)-3,4-dihydro-1,2-benzoxaborinine-8-carboxylic Acid]	X (X = MPC@4 ≤ 5 μg/mL)	X (X = MPC@4 ≤ 5 μg/mL)	X (X = MPC@4 ≤ 5 μg/mL)	X (X = MPC@4 ≤ 5 μg/mL)	X (X = MPC@4 ≤ 5 μg/mL)	X (X = MPC@1 ≤ 5 μg/mL)	X (X = MPC@1 ≤ 5 μg/mL)	X (X = MPC@1 ≤ 5 μg/mL)	X (X = MPC@1 ≤ 5 μg/mL)	–	–	–
COc1ccc2c(c1C(=O)O)OB(O)CC2CCO (centres unmarked) [Compound 12, 2-Hydroxy-4-(2-hydroxyethyl)-7-methoxy-3,4-dihydro-1,2-benzoxaborinine-8-carboxylic Acid]	Y (Y = 5 μg/mL < MPC@4 ≤ 20 μg/mL)	X (X = MPC@4 ≤ 5 μg/mL)	X (X = MPC@4 ≤ 5 μg/mL)	X (X = MPC@4 ≤ 5 μg/mL)	Z (Z = MPC@4 > 20 μg/mL)	X (X = MPC@1 ≤ 5 μg/mL)	Y (Y = 5 μg/mL < MPC@1 ≤ 20 μg/mL)	X (X = MPC@1 ≤ 5 μg/mL)	X (X = MPC@1 ≤ 5 μg/mL)	–	–	–
COc1ccc2c(c1C(=O)O)OB(O)CC2CNC=O (centres unmarked) [Compound 13, 4-(formamidomethyl)-2-hydroxy-7-methoxy-3,4-dihydro-1,2-benzoxaborinine-8-carboxylic Acid]	X (X = MPC@4 ≤ 5 μg/mL)	X (X = MPC@4 ≤ 5 μg/mL)	X (X = MPC@4 ≤ 5 μg/mL)	X (X = MPC@4 ≤ 5 μg/mL)	X (X = MPC@4 ≤ 5 μg/mL)	X (X = MPC@1 ≤ 5 μg/mL)	X (X = MPC@1 ≤ 5 μg/mL)	X (X = MPC@1 ≤ 5 μg/mL)	X (X = MPC@1 ≤ 5 μg/mL)	–	–	–
COc1ccc2c(c1C(=O)O)OB(O)CC2CN (centres unmarked) [Compound 14, 4-(aminomethyl)-2-hydroxy-7-methoxy-3,4-dihydro-1,2-benzoxaborinine-8-carboxylic Acid]	Y (Y = 5 μg/mL < MPC@4 ≤ 20 μg/mL)	X (X = MPC@4 ≤ 5 μg/mL)	Y (Y = 5 μg/mL < MPC@4 ≤ 20 μg/mL)	X (X = MPC@4 ≤ 5 μg/mL)	Z (Z = MPC@4 > 20 μg/mL)	X (X = MPC@1 ≤ 5 μg/mL)	X (X = MPC@1 ≤ 5 μg/mL)	Y (Y = 5 μg/mL < MPC@1 ≤ 20 μg/mL)	Y (Y = 5 μg/mL < MPC@1 ≤ 20 μg/mL)	–	–	–
COc1ccc2c(c1C(=O)O)OB(O)CC2CN=[N+]=[N-] (centres unmarked) [Compound 15, 4-(Azidomethyl)-2-hydroxy-7-methoxy-3,4-dihydro-1,2-benzoxaborinine-8-carboxylic Acid]	X (X = MPC@4 ≤ 5 μg/mL)	X (X = MPC@4 ≤ 5 μg/mL)	X (X = MPC@4 ≤ 5 μg/mL)	X (X = MPC@4 ≤ 5 μg/mL)	X (X = MPC@4 ≤ 5 μg/mL)	X (X = MPC@1 ≤ 5 μg/mL)	X (X = MPC@1 ≤ 5 μg/mL)	X (X = MPC@1 ≤ 5 μg/mL)	X (X = MPC@1 ≤ 5 μg/mL)	–	–	–
COc1ccc2c(c1C(=O)O)OB(O)CC2CNC(C)=O (centres unmarked) [Compound 17, 4-(acetamidomethyl)-2-hydroxy-7-methoxy-3,4-dihydro-1,2-benzoxaborinine-8-carboxylic Acid]	X (X = MPC@4 ≤ 5 μg/mL)	X (X = MPC@4 ≤ 5 μg/mL)	X (X = MPC@4 ≤ 5 μg/mL)	X (X = MPC@4 ≤ 5 μg/mL)	X (X = MPC@4 ≤ 5 μg/mL)	X (X = MPC@1 ≤ 5 μg/mL)	Y (Y = 5 μg/mL < MPC@1 ≤ 20 μg/mL)	Y (Y = 5 μg/mL < MPC@1 ≤ 20 μg/mL)	X (X = MPC@1 ≤ 5 μg/mL)	–	–	–
C[C@]1(Cn2ccnn2)[C@H](C(=O)O)N2C(=O)C[C@H]2S1(=O)=O [Tazobactam, reference compound]	Z (Z = MPC@4 > 20 μg/mL)	Z (Z = MPC@4 > 20 μg/mL)	X (X = MPC@4 ≤ 5 μg/mL)	Y (Y = 5 μg/mL < MPC@4 ≤ 20 μg/mL)	X (X = MPC@4 ≤ 5 μg/mL)	Z (Z = MPC@1 > 20 μg/mL)	Z (Z = MPC@1 > 20 μg/mL)	Y (Y = 5 μg/mL < MPC@1 ≤ 20 μg/mL)	–	Y (Y = 5 μg/mL < MPC@4 ≤ 20 μg/mL)	Y (Y = 5 μg/mL < MPC@4 ≤ 20 μg/mL)	Y (Y = 5 μg/mL < MPC@4 ≤ 20 μg/mL)
